# Test results as given in the supplement of paper PMC8728848.
# The list shows a part of the results.
# Experiments:
# Assay in all cases: glycan array binding signal (z-score within array); higher = stronger binding
# Conditions in all cases: glycan notation: IUPAC condensed, linker removed
# [1] = target: Gal(b1-4)GlcNAc(b1-3)Gal(b1-4)GlcNAc(b1-3)Gal(b1-4)GlcNAc(b1-3)Gal(b1-4)GlcNAc(b1-2)Man(a1-3)[Gal(b1-4)GlcNAc(b1-3)Gal(b1-4)GlcNAc(b1-3)Gal(b1-4)GlcNAc(b1-3)Gal(b1-4)GlcNAc(b1-2)Man(a1-6)]Man(b1-4)GlcNAc(b1-4)[Fuc(a1-6)]GlcNAc
# How it was run: (§1)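 The Consortium for Functional Glycomics database supplied 3228 glycan arrays, of which those lacking an available protein sequence were dropped. The binding signal, a within-array Z-score, was averaged across arrays of the same protein sequence and across linkers. Negative scores can be read as non-binding.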
# [2] = target: Gal(b1-4)GlcNAc(b1-3)Gal(b1-4)GlcNAc(b1-3)Gal(b1-4)GlcNAc(b1-3)Gal(b1-4)GlcNAc(b1-2)[Gal(b1-4)GlcNAc(b1-3)Gal(b1-4)GlcNAc(b1-3)Gal(b1-4)GlcNAc(b1-3)Gal(b1-4)GlcNAc(b1-6)]Man(a1-6)[Gal(b1-4)GlcNAc(b1-3)Gal(b1-4)GlcNAc(b1-3)Gal(b1-4)GlcNAc(b1-3)Gal(b1-4)GlcNAc(b1-2)Man(a1-3)]Man(b1-4)GlcNAc(b1-4)[Fuc(a1-6)]GlcNAc
# How it was run: as §1
# [3] = target: Gal(b1-4)GlcNAc(b1-3)Gal(b1-4)GlcNAc(b1-3)Gal(b1-4)GlcNAc(b1-3)Gal(b1-4)GlcNAc(b1-3)Gal(b1-4)GlcNAc(b1-2)Man(a1-3)[Gal(b1-4)GlcNAc(b1-3)Gal(b1-4)GlcNAc(b1-3)Gal(b1-4)GlcNAc(b1-3)Gal(b1-4)GlcNAc(b1-3)Gal(b1-4)GlcNAc(b1-2)Man(a1-6)]Man(b1-4)GlcNAc(b1-4)GlcNAc
# How it was run: as §1
# [4] = target: Gal(b1-4)GlcNAc(b1-3)Gal(b1-4)GlcNAc(b1-3)Gal(b1-4)GlcNAc(b1-3)Gal(b1-4)GlcNAc(b1-3)Gal(b1-4)GlcNAc(b1-2)Man(a1-3)[Gal(b1-4)GlcNAc(b1-3)Gal(b1-4)GlcNAc(b1-3)Gal(b1-4)GlcNAc(b1-3)Gal(b1-4)GlcNAc(b1-3)Gal(b1-4)GlcNAc(b1-2)Man(a1-6)]Man(b1-4)GlcNAc(b1-4)[Fuc(a1-6)]GlcNAc
# How it was run: as §1
# [5] = target: Gal(b1-4)GlcNAc(b1-3)Gal(b1-4)GlcNAc(b1-3)Gal(b1-4)GlcNAc(b1-3)Gal(b1-4)GlcNAc(b1-3)Gal(b1-4)GlcNAc(b1-2)[Gal(b1-4)GlcNAc(b1-3)Gal(b1-4)GlcNAc(b1-3)Gal(b1-4)GlcNAc(b1-3)Gal(b1-4)GlcNAc(b1-3)Gal(b1-4)GlcNAc(b1-6)]Man(a1-6)[Gal(b1-4)GlcNAc(b1-3)Gal(b1-4)GlcNAc(b1-3)Gal(b1-4)GlcNAc(b1-3)Gal(b1-4)GlcNAc(b1-3)Gal(b1-4)GlcNAc(b1-2)Man(a1-3)]Man(b1-4)GlcNAc(b1-4)[Fuc(a1-6)]GlcNAc
# How it was run: as §1
# [6] = target: Gal(b1-4)GlcNAc(b1-3)Gal(b1-4)GlcNAc(b1-3)Gal(b1-4)GlcNAc(b1-3)Gal(b1-4)GlcNAc(b1-3)Gal(b1-4)GlcNAc(b1-3)Gal(b1-4)GlcNAc(b1-2)Man(a1-3)[Gal(b1-4)GlcNAc(b1-3)Gal(b1-4)GlcNAc(b1-3)Gal(b1-4)GlcNAc(b1-3)Gal(b1-4)GlcNAc(b1-3)Gal(b1-4)GlcNAc(b1-3)Gal(b1-4)GlcNAc(b1-2)Man(a1-6)]Man(b1-4)GlcNAc(b1-4)GlcNAc
# How it was run: as §1
# [7] = target: Gal(b1-4)GlcNAc(b1-3)Gal(b1-4)GlcNAc(b1-3)GalNAc
# How it was run: as §1
# [8] = target: Gal(b1-4)GlcNAc(b1-3)Gal(b1-4)GlcNAc(b1-3)[Gal(b1-4)GlcNAc(b1-3)Gal(b1-4)GlcNAc(b1-6)]GalNAc
# How it was run: as §1
# [9] = target: Gal(b1-4)GlcNAc(b1-3)Gal(b1-4)GlcNAc(b1-6)[Gal(b1-3)]GalNAc
# How it was run: as §1
# [10] = target: Gal(b1-4)GlcNAc(b1-3)Gal(b1-4)[Fuc(a1-3)]GlcNAc(b1-3)Gal(b1-4)[Fuc(a1-3)]GlcNAc
# How it was run: as §1
# [11] = target: Gal(b1-4)GlcNAc(b1-3)GalNAc
# How it was run: as §1
# [12] = target: Gal(b1-4)GlcNAc(b1-3)[Fuc(a1-3)GlcNAc(b1-6)]Gal(b1-4)Glc
# How it was run: as §1
# [13] = target: Gal(b1-4)GlcNAc(b1-3)[Gal(b1-4)GlcNAc(b1-6)]Gal(b1-4)GlcNAc
# How it was run: as §1
# [14] = target: Gal(b1-4)GlcNAc(b1-3)[GlcNAc(b1-6)]Gal(b1-4)GlcNAc
# How it was run: as §1
# [15] = target: Gal(b1-4)GlcNAc(b1-6)Gal(b1-4)GlcNAc
# How it was run: as §1
# [16] = target: Gal(b1-4)GlcNAc(b1-6)GalNAc
# How it was run: as §1
# [17] = target: Gal(b1-4)GlcNAc(b1-6)[Gal(b1-3)]GalNAc
# How it was run: as §1
# [18] = target: Gal(b1-4)GlcNAc(b1-6)[Gal(b1-4)GlcNAc(b1-3)]GalNAc
# How it was run: as §1
# [19] = target: Gal(b1-4)GlcNAc6P
# How it was run: as §1
# [20] = target: Gal(b1-6)Gal
# How it was run: as §1
# [21] = target: Gal3S(b1-3)GalNAc
# How it was run: as §1
# [22] = target: Gal3S(b1-3)GlcNAc
# How it was run: as §1
# [23] = target: Gal3S(b1-3)[Fuc(a1-4)]GlcNAc
# How it was run: as §1
binder,measurement,setting,value
OGAN (protein) MVQKESQATLEERESELSSNPAASAGASLEPPAAPAPGEDNPAGAGGAAVAGAAGGARRFLCGVVEGFYGRPWVMEQRKELFRRLQKWELNTYLYAPKDDYKHRMFWREMYSVEEAEQLMTLISAAREYEIEFIYAISPGLDITFSNPKEVSTLKRKLDQVSQFGCRSFALLFNDIDHNMCAADKEVFSSFAHAQVSITNEIYQYLGEPETFLFCPTEYCGTFCYPNVSQSPYLRTVGEKLLPGIEVLWTGPKVVSKEIPVESIEEVSKIIKRAPVIWDNIHANDYDQKRLFLGPYKGRSTELIPRLKGVLTNPNCEFEANYVAIHTLATWYKSNMNGVRKDVVMTDSEDSTVSIQIKLENEGSDEDIETDVLYSPQMALKLALTEWLQEFGVPHQY,glycan array binding signal (z-score),[1],-0.013
same,glycan array binding signal (z-score),[2],-0.059
same,glycan array binding signal (z-score),[3],-0.05
same,glycan array binding signal (z-score),[4],-0.001
same,glycan array binding signal (z-score),[5],-0.031
same,glycan array binding signal (z-score),[6],0.004
same,glycan array binding signal (z-score),[7],-0.058
same,glycan array binding signal (z-score),[8],-0.027
same,glycan array binding signal (z-score),[9],-0.048
same,glycan array binding signal (z-score),[10],-0.056
same,glycan array binding signal (z-score),[11],-0.068
same,glycan array binding signal (z-score),[12],-0.056
same,glycan array binding signal (z-score),[13],-0.03
same,glycan array binding signal (z-score),[14],-0.059
same,glycan array binding signal (z-score),[15],-0.064
same,glycan array binding signal (z-score),[16],-0.053
same,glycan array binding signal (z-score),[17],-0.055
same,glycan array binding signal (z-score),[18],-0.074
same,glycan array binding signal (z-score),[19],-0.092
same,glycan array binding signal (z-score),[20],-0.036
same,glycan array binding signal (z-score),[21],-0.091
same,glycan array binding signal (z-score),[22],-0.032
same,glycan array binding signal (z-score),[23],0.008
